PMC4336329 (PLoS ONE, 2015)
The whole screen tested about 310,000 compounds, of which about 2,200 (0.71%) showed an effect of 50% or more. Effects have a minus sign here. The list shows a part of the results.

Target: human ether-à-go-go-related gene (hERG) potassium channel (human, UniProt Q12809)
Test: primary screen, population patch clamp on CHO cells stably expressing hERG

human ether-à-go-go-related gene (hERG) potassium channel, sequence (Q12809 whole entry, looked up): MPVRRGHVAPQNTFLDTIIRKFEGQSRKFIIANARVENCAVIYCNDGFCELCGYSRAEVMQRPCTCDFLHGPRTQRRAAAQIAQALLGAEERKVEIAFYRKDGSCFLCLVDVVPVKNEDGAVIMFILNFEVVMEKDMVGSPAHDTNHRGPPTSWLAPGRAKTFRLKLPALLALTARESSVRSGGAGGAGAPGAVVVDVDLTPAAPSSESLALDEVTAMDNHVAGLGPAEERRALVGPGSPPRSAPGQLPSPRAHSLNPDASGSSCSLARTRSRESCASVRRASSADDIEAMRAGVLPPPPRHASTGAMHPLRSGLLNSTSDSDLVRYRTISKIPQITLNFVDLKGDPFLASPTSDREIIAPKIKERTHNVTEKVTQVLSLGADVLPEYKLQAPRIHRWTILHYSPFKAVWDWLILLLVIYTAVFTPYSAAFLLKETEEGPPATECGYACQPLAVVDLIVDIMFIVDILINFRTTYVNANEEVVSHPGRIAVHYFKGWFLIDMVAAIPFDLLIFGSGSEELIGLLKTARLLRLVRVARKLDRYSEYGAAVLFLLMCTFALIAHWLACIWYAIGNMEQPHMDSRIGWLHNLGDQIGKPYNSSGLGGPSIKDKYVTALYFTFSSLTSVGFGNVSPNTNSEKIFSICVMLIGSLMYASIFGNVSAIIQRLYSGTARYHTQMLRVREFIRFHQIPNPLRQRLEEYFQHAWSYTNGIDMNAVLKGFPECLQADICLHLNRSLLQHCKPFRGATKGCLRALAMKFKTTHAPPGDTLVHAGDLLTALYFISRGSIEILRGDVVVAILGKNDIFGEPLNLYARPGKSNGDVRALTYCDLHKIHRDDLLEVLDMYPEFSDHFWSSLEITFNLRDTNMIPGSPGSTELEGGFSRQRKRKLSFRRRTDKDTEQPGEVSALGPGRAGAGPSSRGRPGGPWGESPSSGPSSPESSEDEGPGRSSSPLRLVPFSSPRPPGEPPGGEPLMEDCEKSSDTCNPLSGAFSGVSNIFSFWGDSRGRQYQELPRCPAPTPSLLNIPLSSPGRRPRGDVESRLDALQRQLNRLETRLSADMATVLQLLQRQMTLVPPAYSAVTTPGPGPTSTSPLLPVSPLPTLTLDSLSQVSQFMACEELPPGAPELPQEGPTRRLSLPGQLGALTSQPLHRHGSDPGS

| Structure (SMILES) | hERG current change (%, negative = inhibition) at 1uM |
| --- | --- |
| Cc1ccccc1NC(=O)c1ccc(NC(=O)C2CCCO2)cc1 (stereo not shown) | 8.6% |
| Cc1ccc(C(=O)Nc2ccc(NC(=O)c3ccco3)c(C)c2)cc1 | 11% |
| CCN(Cc1ccccc1)Cc1nnnn1Cc1ccccc1 | 8.8% |
| O=[N+]([O-])c1ccc(S(=O)(=O)Nc2cccc(-c3ccc(N4CCCC4)nn3)c2)cc1 | 9.9% |
| COc1ccc2c(=O)cc(-c3cccnc3)oc2c1OC | 18.5% |
| CC(C)(C)OC(=O)N1CCN(c2ccc(CNC(=O)c3ccc(Cl)cc3)cc2)CC1 | -1.45% |
| CCC(C)(C)n1c(=O)[nH]c2c(c1=O)CCC2 | 12.3% |
| Nn1cc(-c2ccccc2)nc1SCC(=O)N1CCN(S(=O)(=O)c2ccc(Cl)cc2)CC1 | 5.56% |
| Cc1ccc(/C=N/NC(=O)c2ccc3nc[nH]c3c2)o1 | 11.9% |
| CCCN1Cc2cccc(C(=O)NCCc3cccc(C)c3)c2C1=O | 8.02% |
| COc1ccc([N+](=O)[O-])cc1N(CC(O)CN(CC(C)C)CC(C)C)S(=O)(=O)c1ccccc1 (stereo not shown) | 2.21% |
| Cc1cc(Nc2ccc(C)c(C)c2)c2ccccc2n1 | -11.4% |
| CC(=O)c1cccc(NC(=O)/C(=C\c2ccco2)NC(=O)c2cccs2)c1 | 0.258% |
| CN(C(=O)c1ccccc1Br)C1CCS(=O)(=O)C1 (stereo not shown) | 4.02% |
| Cc1ccc(C)c(CN2CCC(n3nccc3NC(=O)CCCc3ccccc3)CC2)c1 | -11.4% |
| COCCCN1C(=O)N(c2ccccc2)C(=O)C1CC(=O)Nc1ccc(F)cc1 (stereo not shown) | 16.5% |
| CC1CC(C)(C)N(C(=O)CN2C(=O)CCC2=O)c2ccccc21 (stereo not shown) | 12.5% |
| CCCNC(=O)c1nc2ncc(Br)cn2n1 | -13.7% |
| COc1ccc(CCNS(=O)(=O)c2ccc3c(c2)OCCO3)cc1OC | 10.5% |
| Cc1ccc(NC(=O)N(C)c2ccccc2)cc1 | 14.9% |
| Cc1[nH]c2c(C)cccc2c(=O)c1CN1CCCCCC1 | 11.3% |
| O=C(Cc1ccccc1Cl)Nc1ccc(S(=O)(=O)N2CCOCC2)cc1 | 6.89% |

| Structure (SMILES) | hERG current change (%, negative = inhibition) at 1uM |
| --- | --- |
| CC(C)OP(=O)(OC(C)C)C(Nc1cccc(C(=O)O)c1)c1ccccc1 (stereo not shown) | 8.41% |
| COc1cc(NC(=O)c2cnc(N)o2)cc(C(=O)Nc2cccc(C(F)(F)F)c2)c1 | 8.84% |
| CC1(C(=O)OCC(=O)NC(=O)c2ccccc2)CC1(Cl)Cl (stereo not shown) | 7.05% |
| Cc1ccc(N(CC(=O)N(C)Cc2ccccc2)S(C)(=O)=O)cc1C | 6.77% |
| CCCCCCCNC(=O)C1(CC2CC(c3ccc(Cl)cc3)=NO2)CCN(C(=O)c2cc(OCC)c(OCC)c(OCC)c2)CC1 (stereo not shown) | 10.1% |
| CC(C)(C)OC(=O)NCCCCC1=CC2=CC(=O)C(C)(OC(=O)c3cnc4ccccc4n3)C(=O)C2=CO1 (stereo not shown) | 14.2% |
| Cc1ccc(N2C(=O)C(Cl)=C(NCc3ccccc3)C2=O)c(C)c1 | 7.46% |
| CCC1CCCCN1CCCNC(=O)c1cn(C)c2ccc(S(=O)(=O)N(C)C3CCCCC3)cc2c1=O (stereo not shown) | -2.04% |
| O=C([O-])CC(=O)NC12CC3CC(CC(C3)C1)C2.[Na+] | 11.6% |
| CCOc1ccccc1CN1C(=O)C2(OCCO2)c2ccccc21 | 13.6% |
| Cc1ccc(C(=O)NS(=O)(=O)c2ccc(N=NN(C)C)cc2)cc1 | 12.2% |
| CCC1CN(S(=O)(=O)c2cc(-c3cc(C)no3)ccc2OC)c2cc(C)ccc2O1 (stereo not shown) | -5.4% |
| Cc1nnc(SC(C)C(=O)Nc2c(C)n(C)n(-c3ccccc3)c2=O)n1N (stereo not shown) | 8.47% |
| CC(O)[C@H]1CNC(=S)N1CCc1cccc(F)c1 (stereo partly shown) | 16.6% |
| COc1ccc(CNC(=O)C2CCCN(S(=O)(=O)c3cc(C)ccc3OC)C2)cc1 (stereo not shown) | 6.66% |
| CC[n+]1c(C)n(-c2ccccc2)c2ccc(NC(C)=O)cc21.[I-] | 13.4% |
| CC1CC(C)CN(S(=O)(=O)c2ccc(C(=O)NCCCn3ccnc3)cc2)C1 (stereo not shown) | 9.09% |
| CCOC(=O)C1CCCN(C(=O)c2cn(C)c3ccc(S(=O)(=O)N4CCCC4)cc3c2=O)C1 (stereo not shown) | 6.98% |
| Cc1sc2nc(SC(C)C)nc(N)c2c1C | 1.82% |
| Cc1ccc(C(=O)N2CCOCC2)cc1S(=O)(=O)N1CCCCC1 | 12.7% |
| CC(=O)c1ccc(N2CCN(S(=O)(=O)c3cc(-c4cc(C)no4)ccc3C(C)C)CC2)cc1 | 12.1% |
| COc1cc2cc(C(N)=O)c(N)nc2cc1OC | -5.49% |

| Structure (SMILES) | hERG current change (%, negative = inhibition) at 1uM |
| --- | --- |
| Cc1ccccc1N1CCN(C2CCCN(C(=O)c3snnc3C)C2)CC1 (stereo not shown) | 13% |
| O=C(NC1CCCCCCC1)NC1CCCCC1 | -0.306% |
| O=C(Nc1ccc([N+](=O)[O-])cc1)Nc1ccc(OC(F)F)c(Cl)c1 | 12.6% |
| O=C(CN1C(=O)c2ccccc2C1=O)Oc1ccc(Cl)cc1 | 13.4% |
| COc1ccc(-c2nc(CS(=O)CC(=O)NC3CCCCC3)c(C)o2)cc1 (stereo not shown) | -10.2% |
| Fc1ccc(NC(=S)NN2CCOCC2)cc1Cl | 16.7% |
| COc1cc(/C=C2/C(=N)N3N=C(CC(=O)N4CCOCC4)SC3=NC2=O)ccc1OCc1ccccc1F | 13.2% |
| Cc1ccc(S(=O)(=O)N2CCN(C(=O)CN3C(=O)c4ccc([N+](=O)[O-])cc4C3=O)CC2)c(C)c1 | 8.65% |
| O=C(CCNC(=O)c1ccccc1Cl)Nc1cc(S(=O)(=O)N2CCOCC2)ccc1N1CCCC1 | 9.62% |
| CC(NC(=O)c1cccc2ccccc12)c1ccc2c(c1)CCCC2 (stereo not shown) | 13.1% |
| O=C(NCCCO)NC(=S)c1cccc2ccccc12 | 13.2% |
| CCc1nnc(NS(=O)(=O)c2ccc(N=Cc3c(C)[nH]n(-c4ccc(Cl)cc4)c3=O)cc2)s1 | 9.5% |
| Cc1cccc(NC(=O)CSc2cccc3cccnc23)c1 | 6.24% |
| COc1cc(CN(C)c2ncnc3sccc23)ccc1OC(F)F | -0.356% |
| Cc1nn(-c2ccccc2)c2c1C(c1ccc([N+](=O)[O-])cc1)C(C#N)=C(N)O2 (stereo not shown) | 15.7% |
| CCOC(=O)c1cc(C#N)c(SCC(=O)OC)[nH]c1=O | 3.41% |
| COc1ccc(S(=O)(=O)N2CCC(C(=O)N3CCOCC3)CC2)cc1OC | 12.9% |
| O=C(O)CCn1c(C2CCCCC2)nc2ccccc21 | -10.6% |
| CC(=O)c1cccc(NC(=S)NC(=O)CC(C)(C)C)c1 | 1.95% |
| O=C(NCCC(=O)N1CCN(c2ccccc2O)CC1)c1ccc(Cl)cc1 | 10.7% |
| Cc1ccc(C2C3=C(NCCN=C3c3ccccc3)C(=O)N2c2ccccc2)cc1 (stereo not shown) | 2.7% |
| O=C(c1ccc([N+](=O)[O-])o1)N1CCN(c2nc3c(Cl)cccc3s2)CC1 | 1.85% |

| Structure (SMILES) | hERG current change (%, negative = inhibition) at 1uM |
| --- | --- |
| Cc1ccc(S(=O)(=O)Cc2ccc(C(=O)NCCc3ccccc3)o2)cc1 | 3.8% |
| COc1ccc(C(=O)Nc2cc(OC)cc(OC)c2)cc1 | 5.63% |
| Cn1c(N)c(C(=O)COc2ccc(C#N)cc2)c(=O)n(C)c1=O | -0.193% |
| Cc1ccc(NC(=O)C2CCN(S(=O)(=O)c3cccnc3)CC2)cc1C | 14.2% |
| CC(NS(=O)(=O)c1ccc(OCC(=O)NCc2ccccn2)cc1)c1ccccc1 (stereo not shown) | 8.66% |
| CCCCC(=O)Nc1ccc(C(=O)NNC(=S)NC(=O)c2cccs2)cc1 | 2.39% |
| Cc1cc(C)nc(NC(=O)c2cccs2)c1 | 17.6% |
| CCNC(=O)NC(=O)C(C)Sc1nc2ccccc2n1CC(C)C (stereo not shown) | 1.93% |
| Cc1cccc(NS(=O)(=O)c2cc3c(cc2C)NC(=O)CO3)c1 | -3.61% |
| Cc1ccc(-c2nn(Cc3ccccc3)cc2/C=C/C(=O)O)cc1C | 24% |
| COc1cc(C(=O)NC(=S)N2CCCCCC2)cc(OC)c1OC | 15.7% |
| CC1(C)c2ssc(=S)c2-c2ccccc2N1C(=O)c1ccco1 | 14.6% |
| O=C(OCC(=O)c1ccc(Cl)s1)c1ccc(CO)cc1 | 9.9% |
| CCN(CC)Cc1c(O)ccc2c(=O)c(-c3ccc4c(c3)OCCO4)coc12 | 11.9% |
| CCCNC(=O)COC(=O)CCC(=O)c1cccs1 | 11% |
| O=C(Cc1ccc([N+](=O)[O-])cc1)N1CCCCCC1 | 0.724% |
| O=C(CSc1nnc(-c2ccc(F)cc2)o1)c1ccc2c(c1)OCCO2 | 9.46% |
| COc1cccc(N2CC(C(=O)Nc3nnc(SCC(=O)NC4CCCC4)s3)CC2=O)c1 (stereo not shown) | 15.2% |
| COc1cccc(/C=C2\Sc3ccc(C(=O)NCc4cccnc4)cc3N(C)C2=O)c1 | 1.32% |
| COc1ccc(CCC(C)Nc2ccc(F)c(F)c2)cc1 (stereo not shown) | -26.7% |
| CN1CCN(C(=S)NC(=O)c2ccc(Br)cc2)CC1 | 9.77% |
| CCOC(=O)c1c(-c2ccccc2)csc1NC(=S)NC | -2.22% |
